This is one part of the list.
Assays:
Assay in all cases: glycan array binding signal (z-score within array); higher = stronger binding
Details in all cases: glycan notation: IUPAC condensed, linker removed
[1] = target: Gal6S(b1-4)Glc6S
In short: (§1)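 The Consortium for Functional Glycomics database supplied 3228 glycan arrays, of which those lacking an available protein sequence were dropped. The binding signal, a within-array Z-score, was averaged across arrays of the same protein sequence and across linkers. Negative scores can be read as non-binding.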

[2] = target: Gal6S(b1-4)GlcNAc
In short: as §1

[3] = target: Gal6S(b1-4)GlcNAc6S
In short: as §1

[4] = target: GalNAc(a1-3)Gal
In short: as §1

[5] = target: GalNAc(a1-3)GalNAc
In short: as §1

[6] = target: GalNAc(a1-3)GalNAc(b1-3)Gal(a1-4)Gal(b1-4)Glc
In short: as §1

[7] = target: GalNAc(a1-3)GalNAc(b1-3)Gal(a1-4)Gal(b1-4)GlcNAc
In short: as §1

[8] = target: GalNAc(b1-3)Gal
In short: as §1

[9] = target: GalNAc(b1-3)Gal(a1-4)Gal(b1-4)GlcNAc
In short: as §1

[10] = target: GalNAc(b1-3)Gal(a1-4)Gal(b1-4)GlcNAc(b1-3)Gal(b1-4)Glc
In short: as §1

[11] = target: GalNAc(b1-3)Gal(a1-6)Gal(b1-4)Glc
In short: as §1

[12] = target: GalNAc(b1-3)GalNAc
In short: as §1

[13] = target: GalNAc(b1-3)GlcNAc
In short: as §1

[14] = target: GalNAc(b1-4)Gal(b1-4)Glc
In short: as §1

[15] = target: GalNAc(b1-4)GlcNAc
In short: as §1

[16] = target: GalNAc(b1-4)GlcNAc(b1-2)Man
In short: as §1

[17] = target: GalNAc(b1-4)GlcNAc(b1-2)Man(a1-3)[GalNAc(b1-4)GlcNAc(b1-2)Man(a1-6)]Man(b1-4)GlcNAc(b1-4)GlcNAc
In short: as §1

[18] = target: GalNAc(b1-4)GlcNAc(b1-3)GalNAc(b1-4)GlcNAc
In short: as §1

[19] = target: GalNAc(b1-4)GlcNAc6S
In short: as §1

[20] = target: GalNAc(b1-6)GalNAc
In short: as §1

[21] = target: GalNAc3S(b1-4)GlcNAc
In short: as §1

[22] = target: GalNAc3S(b1-4)GlcNAc3S
In short: as §1

[23] = target: GalNAc3S(b1-4)[Fuc(a1-3)]GlcNAc
In short: as §1

[24] = target: GalNAc4S6S(b1-4)GlcNAc
In short: as §1

[25] = target: GalNAc6S(b1-4)GlcNAc
In short: as §1

[26] = target: Glc(a1-4)Glc
In short: as §1

[27] = target: Glc(a1-4)Glc(a1-4)Glc(a1-4)Glc
In short: as §1

[28] = target: Glc(a1-6)Glc(a1-6)Glc
In short: as §1

[29] = target: Glc(a1-6)Glc(a1-6)Glc(a1-6)Glc
In short: as §1

[30] = target: Glc(b1-4)Glc
In short: as §1

[31] = target: Glc(b1-6)Glc
In short: as §1

[32] = target: GlcA(b1-3)Gal
In short: as §1

[33] = target: GlcA(b1-3)GlcNAc
In short: as §1

[34] = target: GlcA(b1-6)Gal
In short: as §1

[35] = target: GlcA3S(b1-3)Gal(b1-4)GlcNAc(b1-2)Man
In short: as §1

[36] = target: GlcA3S(b1-3)Gal(b1-4)GlcNAc(b1-3)Gal(b1-4)Glc
In short: as §1

[37] = target: GlcNAc(a1-3)Gal(b1-4)GlcNAc
In short: as §1

B1: PX14375l-pdi-526-25-526 (Parabacteroides distasonis) (protein)
chain: DEEPKSTLTDVAYYKTQSQMESNVNYLYRTGAIGSYVDFGSAYIGPFASIQEELTGYFSNSYEGQEIVCRYTRELTRQQNTMQLASKMDKVWDDCYRGINVANGAIKHMPEVPMDQATADRLTAEAKFFRAFNYFYLVKTFGAVPFYTDPYELAENMELPRTETSTIYNQIESDLKDAMNVLPEATFAANGHRITKYVAAMTLTDVYMYQHKYAEAAETVRIVVNSNHKLTTNDDLAMNSAFNKLRSTDDLDEAIYAYEYDNQISPSNWLPTYAFDGDASSNGLFGTYAITQKVHGPNDRYLNIYESNDLRRQPNQFYHWTYTNPKTGKVWNSVGNAACCWYYYDEDALLTTGRGTKDWNVYRYAEALLDAAESIAQSTGVTAEAAGYLAQVKARANMEGKTAAEIASSLQSMGKQAFIEECWTERLRELPLEFKMWDMCVRTGMFPNISETTPGQVTYIPLVGAKNASGATIKESDLLWPLSVNEIQRNPSLTQNEGYSAK
With B1 the “glycan array binding signal (z-score)” value [1] was -0.213, the “glycan array binding signal (z-score)” value [2] was -0.026 and the “glycan array binding signal (z-score)” value [3] was 0.054. For the same binder, the “glycan array binding signal (z-score)” value [4] was 0.039, the “glycan array binding signal (z-score)” value [5] was -0.431 and the “glycan array binding signal (z-score)” value [6] was -0.057. The “glycan array binding signal (z-score)” value [7] was -0.248, the “glycan array binding signal (z-score)” value [8] was -0.03 and the “glycan array binding signal (z-score)” value [9] was -0.17. For the same binder, the “glycan array binding signal (z-score)” value [10] was -0.043, the “glycan array binding signal (z-score)” value [11] was -0.016 and the “glycan array binding signal (z-score)” value [12] was 0.156. The “glycan array binding signal (z-score)” value [13] was -0.388, the “glycan array binding signal (z-score)” value [14] was -0.159 and the “glycan array binding signal (z-score)” value [15] was 0.06. For the same binder, the “glycan array binding signal (z-score)” value [16] was -0.183, the “glycan array binding signal (z-score)” value [17] was -0.068 and the “glycan array binding signal (z-score)” value [18] was -0.222. For the same binder, the “glycan array binding signal (z-score)” value [19] was -0.255, the “glycan array binding signal (z-score)” value [20] was -0.108 and the “glycan array binding signal (z-score)” value [21] was -0.071. The “glycan array binding signal (z-score)” value [22] was -0.263, the “glycan array binding signal (z-score)” value [23] was -0.273 and the “glycan array binding signal (z-score)” value [24] was -0.138. The “glycan array binding signal (z-score)” value [25] was -0.256, the “glycan array binding signal (z-score)” value [26] was -0.264 and the “glycan array binding signal (z-score)” value [27] was -0.319. The “glycan array binding signal (z-score)” value [28] was -0.259, the “glycan array binding signal (z-score)” value [29] was -0.058 and the “glycan array binding signal (z-score)” value [30] was -0.069. The “glycan array binding signal (z-score)” value [31] was -0.224, the “glycan array binding signal (z-score)” value [32] was -0.252 and the “glycan array binding signal (z-score)” value [33] was -0.199. The “glycan array binding signal (z-score)” value [34] was -0.409, the “glycan array binding signal (z-score)” value [35] was 0.055 and the “glycan array binding signal (z-score)” value [36] was -0.146. For the same binder, the “glycan array binding signal (z-score)” value [37] was -0.379.

— the supplement of paper PMC8728848
